The structures appear in SMILES notation. Inconclusive results are not listed. The source holds more than one record for some entries. Only these are listed. There may be further records. The records of an entry are repeats (runs, samples, wells, individuals or studies).

The test deals with MX-1 breast xenograft, nude mice, tumor weight T/C. Put plainly: NCI In Vivo Anticancer Drug Screen. Data for tumor model Human Mammary Carcinoma MX-1 Xenograft (intrarenal inoculation) in NU/NU Swiss (nude) mice. The following applies: endpoint: mean tumor weight change, higher = larger tumour. In outline: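 Mice carrying the implanted tumor receive either test agent or vehicle. Tumor size or survival is then recorded for both groups. Results are stated as the treated-to-control quotient.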

The mark [1] stands for this setting: dose: 1.5 mg/kg/injection, schedule: Q04DX003 (sc), vehicle: saline.
The mark [2] stands for this setting: dose: 3.0 mg/kg/injection, schedule: Q04DX003 (sc), vehicle: saline.
Where [3] appears, read: dose: 6.0 mg/kg/injection, schedule: Q04DX003 (sc), vehicle: saline.
[4] abbreviates: dose: 75.0 mg/kg/injection, schedule: Q04DX003 (sc), vehicle: saline.

With `N[C@@H](Cc1ccc(N(CCCl)CCCl)cc1)C(=O)O`, the T/C reads like this: (dose: 1.0 mg/kg/injection, schedule: Q01DX010 (ip), vehicle: saline) 4 % of control and 41 % of control; (dose: 1.0 mg/kg/injection, schedule: Q01DX010 (sc), vehicle: suspension in saline) -60 % of control, 1 % of control, 29 % of control; under setting [1], -100 % of control, 5 % of control, 38 % of control; (dose: 2.0 mg/kg/injection, schedule: Q01DX010 (sc), vehicle: suspension in saline) -100 % of control and 12 % of control; under setting [2], -94 % of control, -88 % of control, 4 % of control; under setting [3], -100 % of control, -79 % of control, -64 % of control. In the case of `COC1C(O)CC(OC2CC(OC3CC(O[C@@H]4C(=O)c5c(cc6cc(OC7CC(OC8CC(O)C(O)C(C)O8)C(O)C(C)O7)c(C)c(O)c6c5O)C[C@H]4[C@H](OC)C(=O)[C@@H](O)[C@@H](C)O)OC(C)C3O)OC(C)C2O)OC1C` (some centres undefined), the T/C (dose: 0.37 mg/kg/injection, schedule: Q01DX010 (sc), vehicle: saline) is -47 % of control and 24 % of control; the T/C (dose: 0.75 mg/kg/injection, schedule: Q01DX010 (sc), vehicle: saline) is reported as -100 % of control, 11 % of control, 18 % of control; the T/C (dose: 1.5 mg/kg/injection, schedule: Q01DX010 (sc), vehicle: saline) was -100 % of control and -63 % of control. Take `O=C1NC2(CCCCC2)C(=O)N1CCN(CCCl)CCCl`: the T/C reads like this: (dose: 6.0 mg/kg/injection, schedule: Q01DX010 (sc), vehicle: saline) -47 % of control and 67 % of control; (dose: 12.0 mg/kg/injection, schedule: Q01DX010 (sc), vehicle: saline) -36 % of control, 14 % of control, 16 % of control; (dose: 24.0 mg/kg/injection, schedule: Q01DX010 (sc), vehicle: saline) -65 % of control, -55 % of control, -36 % of control; (dose: 48.0 mg/kg/injection, schedule: Q01DX010 (sc), vehicle: saline) -100 % of control and -70 % of control. Consider `CC1CN1P1(N2CC2C)=NP(N2CC2C)(N2CC2C)=NP(N2CC2C)(N2CC2C)=N1` (centres undefined), for which the T/C under setting [4] was 27 % of control and 60 % of control. Consider `CCCC(=O)O`, for which the T/C (dose: 400.0 mg/kg/injection, schedule: Q01DX010 (sc), vehicle: saline) was 81 % of control and 109 % of control. As for `COC12C(COC(N)=O)C3=C(C(=O)C(C)=C(N)C3=O)N1CC1C2N1C` (centres undefined), under “dose: 4.0 mg/kg/injection, schedule: Q01DX010 (sc), vehicle: saline”, the T/C is -80 % of control and -34 % of control.

With `O=C1C(NCCO)=C(N2CC2)C(=O)C(NCCO)=C1N1CC1`, the T/C (dose: 1.0 mg/kg/injection, schedule: Q04DX003 (sc), vehicle: saline) is 17 % of control and 93 % of control; the T/C (dose: 4.0 mg/kg/injection, schedule: Q04DX003 (sc), vehicle: saline) was -69 % of control and 1 % of control.

As to `CC(=O)[O][Pb]([O]C(C)=O)([c]1ccccc1)[c]1ccccc1`, the T/C runs as follows: (dose: 200.0 mg/kg/injection, schedule: Q01DX010 (sc), vehicle: Klucel (hydroxypropylcellulose) (HPC)) 52 % of control, 67 % of control, 97 % of control; (dose: 400.0 mg/kg/injection, schedule: Q01DX010 (sc), vehicle: Klucel (hydroxypropylcellulose) (HPC)) -100 % of control and 96 % of control. On to `CCC1(O)CC2CN(CCc3c([nH]c4ccccc34)C(C(=O)OC)(c3cc4c(cc3OC)N(C)C3C(O)(C(=O)NCCSSCCNC(=O)C5(O)C(O)C6(CC)C=CCN7CCC8(c9cc(C%10(C(=O)OC)CC%11CN(CCc%12c%10[nH]c%10ccccc%12%10)CC(O)(CC)C%11)c(OC)cc9N(C)C58)C76)C(O)C5(CC)C=CCN6CCC43C65)C2)C1` (centres undefined), for which the T/C under setting [1] was 6 % of control and 88 % of control; the T/C under setting [2] is -100 % of control and 20 % of control; the T/C under setting [3] was -100 % of control and 3 % of control. For `O=C(O)C1(C(=O)O)CCC1.[NH2-].[NH2-].[Pt+2]`, the T/C (dose: 25.0 mg/kg/injection, schedule: Q01DX010 (sc), vehicle: dextrose) was -55 % of control and -20 % of control. With `CCCCNC(C)[C@]1(O)Cc2c(O)c3c(c(O)c2[C@@H](OC2CC(N)C(O)C(C)O2)C1)C(=O)c1c(OC)cccc1C3=O` (some centres undefined), the T/C (dose: 12.5 mg/kg/injection, schedule: Q01DX010 (sc), vehicle: saline) is 14 % of control, 20 % of control, 70 % of control. As for `O=P1(NCCCl)OCCCN1CCCl` (centres undefined), the T/C runs as follows: (dose: 37.5 mg/kg/injection, schedule: Q04DX003 (sc), vehicle: saline) 3 % of control and 29 % of control; under setting [4], -100 % of control and 4 % of control. For `C(CC1CO1)C1CO1` (centres undefined), the T/C is, setting by setting: (dose: 25.0 mg/kg/injection, schedule: Q01DX010 (sc), vehicle: saline) 69 % of control and 95 % of control; (dose: 50.0 mg/kg/injection, schedule: Q01DX010 (sc), vehicle: saline) 24 % of control and 56 % of control; (dose: 75.0 mg/kg/injection, schedule: Q04DX003 (sc), vehicle: suspension in saline) 32 % of control and 58 % of control.

As to `CC(C)[NH-].CC(C)[NH-].[Cl][Pt+2][Cl]`, the T/C (dose: 37.5 mg/kg/injection, schedule: Q04DX003 (sc), vehicle: dextrose) was 15 % of control, 25 % of control, 101 % of control; the T/C (dose: 75.0 mg/kg/injection, schedule: Q04DX003 (sc), vehicle: dextrose) is 2 % of control, 8 % of control, 66 % of control; the T/C (dose: 150.0 mg/kg/injection, schedule: Q04DX003 (sc), vehicle: dextrose) was -61 % of control, 3 % of control, 43 % of control.

For the molecule `C=CCNc1ccc(C)cc1`, the T/C (dose: 100.0 mg/kg/injection, schedule: Q01DX010 (sc), vehicle: Klucel (hydroxypropylcellulose) (HPC)) is given as 77 % of control, 109 % of control, 110 % of control. Consider `C1CC[N-]CC1.[Cl][Pt+2][Cl].[NH-]C1CC1`, for which the T/C (dose: 25.0 mg/kg/injection, schedule: Q04DX003 (sc), vehicle: Klucel (hydroxypropylcellulose) (HPC)) is 87 % of control and 114 % of control. As for `Nc1ncnc2c1ncn2C1OC(CO)C(O)C1O` (centres undefined), the T/C (dose: 800.0 mg/kg/injection, schedule: Q04DX003 (sc), vehicle: saline) was 80 % of control and 109 % of control.

Take `O=C(O)CCCc1ccc(N(CCCl)CCCl)cc1`: under “dose: 8.0 mg/kg/injection, schedule: Q01DX010 (sc), vehicle: saline with Tween-80”, the T/C was -90 % of control and 2 % of control. On to `CC[C@]1(O)C[C@H]2CN(CCc3c([nH]c4ccccc34)[C@@](C(=O)OC)(c3cc4c(cc3OC)N(C=O)[C@H]3[C@@](O)(C(=O)OC)[C@H](OC(C)=O)[C@]5(CC)C=CCN6CC[C@]43[C@@H]65)C2)C1`, for which the T/C is -10 % of control and 18 % of control (dose: 0.13 mg/kg/injection, schedule: Q01DX010 (sc), vehicle: saline); -100 % of control and -74 % of control (dose: 0.25 mg/kg/injection, schedule: Q01DX010 (sc), vehicle: saline). Consider `Nc1ccn([C@@H](C=O)O[C@@H](C=O)CO)c(=O)n1`, for which the T/C is 75 % of control and 173 % of control (dose: 50.0 mg/kg/injection, schedule: Q01DX010 (sc), vehicle: suspension in saline); 29 % of control, 46 % of control, 55 % of control (dose: 100.0 mg/kg/injection, schedule: Q01DX010 (sc), vehicle: suspension in saline); 1 % of control, 7 % of control, 109 % of control (dose: 200.0 mg/kg/injection, schedule: Q01DX010 (sc), vehicle: suspension in saline).

Consider `CC(=O)Nc1ccc(C(=O)C=O)cc1`, for which the T/C (dose: 25.0 mg/kg/injection, schedule: Q01DX010 (sc), vehicle: saline with Tween-80) is 96 % of control and 156 % of control; the T/C (dose: 100.0 mg/kg/injection, schedule: Q01DX010 (sc), vehicle: saline with Tween-80) is 121 % of control and 164 % of control. `CNNCc1ccc(C(=O)NC(C)C)cc1`: under “dose: 200.0 mg/kg/injection, schedule: Q01DX010 (sc), vehicle: saline”, the T/C is 6 % of control and 49 % of control. Turning to `C=C1C(C)C2C(Cc3ccccc3)NC(=O)C23C(OC(C)=O)/C=C/C(C)(O)CC(C)C/C=C/C3C1O` (centres undefined), for the setting “dose: 6.25 mg/kg/injection, schedule: Q04DX003 (sc), vehicle: Klucel (hydroxypropylcellulose) (HPC)”, the T/C was 74 % of control and 110 % of control.

Regarding `CN(C)N=Nc1cccc(C(N)=O)c1`, the T/C (dose: 100.0 mg/kg/injection, schedule: Q04DX003 (sc), vehicle: Klucel (hydroxypropylcellulose) (HPC)) is given as 18 % of control, 41 % of control, 45 % of control. In the case of `O=c1[nH]cc(F)c(=O)[nH]1`, the T/C by setting is: (dose: 20.0 mg/kg/injection, schedule: Q01DX010 (sc), vehicle: saline) 26 % of control and 61 % of control; (dose: 25.0 mg/kg/injection, schedule: Q04DX003 (sc), vehicle: saline) 77 % of control, 108 % of control, 111 % of control.

For the origin of these results see PubChem BioAssay AID296 (DTP/NCI, 2004).
